Data on 10 sequences can be found in PMC4081100.

Test in all cases: universal protein binding microarray (PBM)
Holding throughout (details): transcription factors of Arabidopsis thaliana; high values mean tight binding; most listed sequences are background and not binding sites; double strand, one strand shown

In one assay the target is GST-NTL6(1-168) (UniProt Q9SCK6).
Another assay deals with T1, GST-ANAC055(1-171) (UniProt Q9LDY8).
T1 sequence: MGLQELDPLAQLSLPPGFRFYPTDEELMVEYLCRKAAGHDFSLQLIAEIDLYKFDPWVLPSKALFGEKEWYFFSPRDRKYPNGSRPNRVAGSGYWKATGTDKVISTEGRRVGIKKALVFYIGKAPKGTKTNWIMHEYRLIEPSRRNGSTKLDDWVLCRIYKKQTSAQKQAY

Another assay addresses T2, GST-ATAF1 NAC domain (UniProt Q39013).
T2 sequence: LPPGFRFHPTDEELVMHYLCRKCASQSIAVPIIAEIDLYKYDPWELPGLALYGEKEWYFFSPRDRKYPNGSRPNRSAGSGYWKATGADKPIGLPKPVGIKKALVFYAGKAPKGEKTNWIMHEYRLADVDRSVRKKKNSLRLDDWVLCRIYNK

Another assay has as its target T3, GST-NAP(1-166) (UniProt O49255).
T3 sequence: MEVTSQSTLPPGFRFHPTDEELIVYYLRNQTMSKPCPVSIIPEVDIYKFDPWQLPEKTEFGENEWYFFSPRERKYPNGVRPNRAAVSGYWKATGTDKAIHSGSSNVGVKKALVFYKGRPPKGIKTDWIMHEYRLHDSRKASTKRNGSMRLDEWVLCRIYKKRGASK

The target in a further assay is T4, GST-NST2(1-184) (UniProt Q9M274).
T4 sequence: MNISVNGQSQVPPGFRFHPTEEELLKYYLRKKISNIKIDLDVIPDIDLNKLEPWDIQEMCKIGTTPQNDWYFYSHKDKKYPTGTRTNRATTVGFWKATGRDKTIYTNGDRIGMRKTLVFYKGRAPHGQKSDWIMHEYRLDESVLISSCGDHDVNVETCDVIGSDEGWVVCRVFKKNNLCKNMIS

The target of another assay is T5, GST-NTL8 NAC domain (UniProt Q9XIN7).
T5 sequence: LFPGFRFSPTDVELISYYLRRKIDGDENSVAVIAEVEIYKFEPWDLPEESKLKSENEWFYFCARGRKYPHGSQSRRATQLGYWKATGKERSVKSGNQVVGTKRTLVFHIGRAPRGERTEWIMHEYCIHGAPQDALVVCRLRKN

For the next assay, the target named is T6, GST-SND1(1-203) (UniProt Q9LPI7).
T6 sequence: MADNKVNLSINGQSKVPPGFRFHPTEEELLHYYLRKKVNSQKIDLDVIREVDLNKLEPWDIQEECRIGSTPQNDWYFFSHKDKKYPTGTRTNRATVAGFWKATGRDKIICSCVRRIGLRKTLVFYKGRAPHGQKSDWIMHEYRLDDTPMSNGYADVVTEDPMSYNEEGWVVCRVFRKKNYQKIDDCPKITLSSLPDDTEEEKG

A further assay concerns the target T7, GST-VND3 NAC domain (UniProt Q9FH59).
T7 sequence: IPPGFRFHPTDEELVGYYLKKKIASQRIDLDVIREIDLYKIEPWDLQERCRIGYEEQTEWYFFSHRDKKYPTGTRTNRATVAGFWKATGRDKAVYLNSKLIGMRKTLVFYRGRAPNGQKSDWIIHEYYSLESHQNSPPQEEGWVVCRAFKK

The next assay deals with T8, GST-VND7 NAC domain (UniProt Q9C8W9).
T8 sequence: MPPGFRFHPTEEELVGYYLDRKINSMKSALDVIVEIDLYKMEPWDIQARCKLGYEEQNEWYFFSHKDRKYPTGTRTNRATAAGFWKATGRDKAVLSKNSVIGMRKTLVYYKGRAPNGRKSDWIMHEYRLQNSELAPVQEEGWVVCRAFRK

Assay [1] deals with T9, GST-VOZ2 (Arabidopsis thaliana) (UniProt Q9SLB9).
T9 sequence: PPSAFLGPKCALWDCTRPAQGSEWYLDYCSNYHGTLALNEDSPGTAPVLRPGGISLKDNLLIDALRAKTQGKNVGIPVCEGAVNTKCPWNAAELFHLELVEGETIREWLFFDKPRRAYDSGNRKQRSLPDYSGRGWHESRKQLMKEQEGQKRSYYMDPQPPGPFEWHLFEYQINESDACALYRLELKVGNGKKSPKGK

The target of another assay is GST-WRKY1(266-371) (UniProt Q9SI37).
For a further assay, the target named is T10, GST-ANAC092(1-176) (UniProt Q9FKA0).
T10 sequence: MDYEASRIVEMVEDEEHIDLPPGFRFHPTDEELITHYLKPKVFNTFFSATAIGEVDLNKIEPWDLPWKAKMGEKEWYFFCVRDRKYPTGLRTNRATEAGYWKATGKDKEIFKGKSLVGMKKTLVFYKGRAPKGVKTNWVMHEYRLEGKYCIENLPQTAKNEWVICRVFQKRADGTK

A further assay addresses T11, GST-ANAC019 NAC domain (UniProt Q9C932).
T11 sequence: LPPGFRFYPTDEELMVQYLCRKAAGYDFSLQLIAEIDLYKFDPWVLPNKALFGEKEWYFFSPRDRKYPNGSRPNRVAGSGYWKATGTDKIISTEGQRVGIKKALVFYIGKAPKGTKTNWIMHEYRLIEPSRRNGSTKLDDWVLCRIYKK

For assay [2], the target named is T12, GST-ANAC092(1-285) full length (UniProt Q9FKA0).
T12 sequence: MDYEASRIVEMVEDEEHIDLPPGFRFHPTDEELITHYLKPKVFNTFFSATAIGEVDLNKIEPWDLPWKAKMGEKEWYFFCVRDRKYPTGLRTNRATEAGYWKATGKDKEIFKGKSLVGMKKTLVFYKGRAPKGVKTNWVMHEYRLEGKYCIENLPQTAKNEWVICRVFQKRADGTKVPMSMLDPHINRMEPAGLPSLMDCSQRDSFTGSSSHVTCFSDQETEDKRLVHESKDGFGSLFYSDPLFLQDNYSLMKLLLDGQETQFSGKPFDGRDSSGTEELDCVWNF

The entries are a selection whose mix differs from that of the whole data set. For some of these results: At the low end of the ranking the order means little. The list shows a part of the results. For some of these results: Construct or isoform of the protein are uncertain.

Take AGGTTACC: the binding signal was -0.0131 E-score with GST-NTL6(1-168); 0.0441 E-score with GST-ANAC055(1-171); -0.00453 E-score with GST-ATAF1 NAC domain; 0.041 E-score with GST-NAP(1-166); -0.0964 E-score in the assay with GST-NST2(1-184); 0.437 E-score in the assay with GST-NTL8 NAC domain. Besides, the binding signal with GST-SND1(1-203) was -0.13 E-score; with GST-VND3 NAC domain, -0.102 E-score; with GST-VND7 NAC domain, -0.0945 E-score; in [1] it was -0.0749 E-score; with GST-WRKY1(266-371) it was -0.169 E-score.
Turning to GGTTTGAC, the binding signal was 0.047 E-score with GST-ANAC092(1-176); 0.131 E-score with GST-NTL6(1-168); 0.171 E-score with GST-ATAF1 NAC domain; 0.177 E-score with GST-NST2(1-184); -0.082 E-score with GST-NTL8 NAC domain; 0.0451 E-score with GST-SND1(1-203). The binding signal is 0.0413 E-score with GST-VND3 NAC domain, -0.0576 E-score in the assay with GST-VND7 NAC domain, 0.199 E-score in assay [1] and 0.483 E-score in the assay with GST-WRKY1(266-371).
Turning to ATTCCTTA, the binding signal was 0.486 E-score in the assay with GST-NTL6(1-168); 0.0942 E-score with GST-ANAC019 NAC domain; -0.0988 E-score in the assay with GST-NAP(1-166); 0.224 E-score in the assay with GST-NST2(1-184); 0.237 E-score with GST-NTL8 NAC domain; 0.306 E-score with GST-SND1(1-203). For the same sequence, the binding signal in the assay with GST-VND3 NAC domain came to 0.0907 E-score; with GST-VND7 NAC domain it was 0.064 E-score; in [1], 0.0658 E-score; with GST-WRKY1(266-371) it was 0.0163 E-score.
Consider AGTCAAGA, for which the binding signal with GST-ANAC092(1-176) is 0.0103 E-score; with GST-ANAC019 NAC domain it was 0.00317 E-score; with GST-ANAC055(1-171) it was -0.0859 E-score; with GST-ATAF1 NAC domain it was -0.0459 E-score; in assay [2], -0.00022 E-score; with GST-NAP(1-166), -0.0346 E-score. The binding signal is 0.00773 E-score with GST-NST2(1-184); 0.0301 E-score in the assay with GST-NTL8 NAC domain; -0.084 E-score in the assay with GST-SND1(1-203); 0.0163 E-score in the assay with GST-VND3 NAC domain; -0.0386 E-score with GST-VND7 NAC domain; -0.0948 E-score in assay [1]. Besides, in the assay with GST-WRKY1(266-371), the binding signal was 0.471 E-score.
Take AGGGTAAC: the binding signal with GST-ANAC019 NAC domain is -0.00463 E-score; with GST-ANAC055(1-171), -0.0257 E-score; with GST-ATAF1 NAC domain it was -0.0351 E-score; in assay [2], 0.0751 E-score; with GST-NAP(1-166), -0.0184 E-score; with GST-NST2(1-184), 0.0175 E-score. Also, the binding signal in the assay with GST-SND1(1-203) was -0.00748 E-score; with GST-VND3 NAC domain, -0.0172 E-score; with GST-VND7 NAC domain, -0.0675 E-score; in assay [1], 0.00562 E-score; with GST-WRKY1(266-371), -0.185 E-score.
As for TACGGTCA, the binding signal with GST-ANAC092(1-176) is -0.23 E-score; with GST-NTL6(1-168) it was -0.0247 E-score; in the assay with GST-ANAC019 NAC domain it was -0.154 E-score; with GST-ANAC055(1-171), -0.0946 E-score; with GST-ATAF1 NAC domain, -0.0772 E-score; in assay [2] it was -0.0413 E-score. For the same sequence, the binding signal with GST-NAP(1-166) was 0.0976 E-score; with GST-NST2(1-184), -0.088 E-score; with GST-NTL8 NAC domain it was -0.0853 E-score; in the assay with GST-SND1(1-203), -0.0743 E-score; in the assay with GST-VND3 NAC domain it was -0.0389 E-score; with GST-VND7 NAC domain, -0.0647 E-score. Further, in assay [1], the binding signal came to 0.0366 E-score.
As for CGGGTCAG, the binding signal in the assay with GST-ANAC092(1-176) is -0.0773 E-score; with GST-NTL6(1-168), -0.175 E-score; with GST-ANAC019 NAC domain, -0.135 E-score; in the assay with GST-ANAC055(1-171), -0.242 E-score; in the assay with GST-ATAF1 NAC domain it was -0.268 E-score; in assay [2], -0.24 E-score. In addition, the binding signal with GST-NAP(1-166) is -0.14 E-score; in the assay with GST-NST2(1-184), -0.147 E-score; in the assay with GST-NTL8 NAC domain it was 0.0402 E-score; in the assay with GST-SND1(1-203), -0.0786 E-score; with GST-VND3 NAC domain it was -0.235 E-score; with GST-VND7 NAC domain, -0.0849 E-score. In addition, in [1], the binding signal was -0.0846 E-score.
For the sequence GAAGGTAA, the binding signal with GST-ATAF1 NAC domain amounted to 0.22 E-score; in assay [2] it was 0.25 E-score; in the assay with GST-NAP(1-166), 0.0143 E-score; with GST-SND1(1-203) it was 0.227 E-score; in the assay with GST-VND3 NAC domain it was 0.148 E-score; with GST-VND7 NAC domain, 0.141 E-score. Also, the binding signal was 0.0928 E-score in assay [1] and -0.0327 E-score in the assay with GST-WRKY1(266-371).
With GTCGGTCA, the binding signal is -0.211 E-score with GST-ANAC092(1-176); -0.224 E-score in the assay with GST-NTL6(1-168); -0.0708 E-score with GST-ANAC019 NAC domain; -0.244 E-score with GST-ANAC055(1-171); -0.198 E-score with GST-ATAF1 NAC domain; -0.182 E-score in assay [2]. The binding signal is -0.0786 E-score with GST-NAP(1-166); -0.202 E-score with GST-NST2(1-184); -0.0472 E-score in the assay with GST-NTL8 NAC domain; -0.203 E-score in the assay with GST-SND1(1-203); -0.104 E-score in the assay with GST-VND3 NAC domain; -0.0815 E-score in the assay with GST-VND7 NAC domain. Also, the binding signal in [1] was -0.109 E-score.
Consider AAGACCAG, for which the binding signal with GST-ANAC092(1-176) was -0.0526 E-score; with GST-NTL6(1-168), -0.119 E-score; with GST-ANAC019 NAC domain it was -0.043 E-score; in the assay with GST-ANAC055(1-171) it was -0.126 E-score; with GST-ATAF1 NAC domain, -0.126 E-score; in assay [2] it was -0.242 E-score. Also, the binding signal with GST-NAP(1-166) was -0.174 E-score; with GST-NST2(1-184), -0.014 E-score; with GST-NTL8 NAC domain, -0.131 E-score; in the assay with GST-SND1(1-203), -0.0962 E-score; with GST-VND3 NAC domain it was -0.179 E-score; with GST-VND7 NAC domain it was -0.143 E-score. The sequence further gave a binding signal in [1] of -0.0299 E-score.
